{"source": "paper PMC9911399", "about": "“Two distinct binding modes provide the RNA-binding protein RbFox with extraordinary sequence specificity”", "binders": {"B1": {"name": "UAACUCU (DNA:RNA)", "RNA": "GGGAGACCGGAAUUCAGAUUGUCCUAACUCUUUAAAUCCCGUCGUAGCCACCA", "DNA 1": "CAATCTGAATTCCGGTCTCCC", "DNA 2": "TGGTGGCTACGACGGGATT"}, "B2": {"name": "CGCCUAG (DNA:RNA)", "RNA": "B1 RNA with U25C, A26G, A27C, C30A, U31G", "DNA 1": "CAATCTGAATTCCGGTCTCCC", "DNA 2": "TGGTGGCTACGACGGGATT"}, "B3": {"name": "UCGACCG (DNA:RNA)", "RNA": "B1 RNA with A26C, A27G, C28A, U29C, U31G", "DNA 1": "CAATCTGAATTCCGGTCTCCC", "DNA 2": "TGGTGGCTACGACGGGATT"}, "B4": {"name": "UAGCCUU (DNA:RNA)", "RNA": "B1 RNA with A27G, U29C, C30U", "DNA 1": "CAATCTGAATTCCGGTCTCCC", "DNA 2": "TGGTGGCTACGACGGGATT"}, "B5": {"name": "AAGCAGU (DNA:RNA)", "RNA": "B1 RNA with U25A, A27G, U29A, C30G", "DNA 1": "CAATCTGAATTCCGGTCTCCC", "DNA 2": "TGGTGGCTACGACGGGATT"}, "B6": {"name": "GCGGGCU (DNA:RNA)", "RNA": "B1 RNA with U25G, A26C, A27G, C28G, U29G", "DNA 1": "CAATCTGAATTCCGGTCTCCC", "DNA 2": "TGGTGGCTACGACGGGATT"}, "B7": {"name": "AAAAGUA (DNA:RNA)", "RNA": "B1 RNA with U25A, C28A, U29G, C30U, U31A", "DNA 1": "CAATCTGAATTCCGGTCTCCC", "DNA 2": "TGGTGGCTACGACGGGATT"}, "B8": {"name": "UGCUGUC (DNA:RNA)", "RNA": "B1 RNA with A26G, A27C, C28U, U29G, C30U, U31C", "DNA 1": "CAATCTGAATTCCGGTCTCCC", "DNA 2": "TGGTGGCTACGACGGGATT"}, "B9": {"name": "UGCAUAA (DNA:RNA)", "RNA": "B1 RNA with A26G, A27C, C28A, C30A, U31A", "DNA 1": "CAATCTGAATTCCGGTCTCCC", "DNA 2": "TGGTGGCTACGACGGGATT"}, "B10": {"name": "ACGGAAC (DNA:RNA)", "RNA": "GGGAGACCGGAAUUCAGAUUGUCCACGGAACUUAAAUCCCGUCGUAGCCACCA", "DNA 1": "CAATCTGAATTCCGGTCTCCC", "DNA 2": "TGGTGGCTACGACGGGATT"}, "B11": {"name": "UUCGCAC (DNA:RNA)", "RNA": "B10 RNA with A25U, C26U, G27C, A29C", "DNA 1": "CAATCTGAATTCCGGTCTCCC", "DNA 2": "TGGTGGCTACGACGGGATT"}, "B12": {"name": "CUACUGU (DNA:RNA)", "RNA": "B1 RNA with U25C, A26U, C30G", "DNA 1": "CAATCTGAATTCCGGTCTCCC", "DNA 2": "TGGTGGCTACGACGGGATT"}, "B13": {"name": "AUGGGAC (DNA:RNA)", "RNA": "B10 RNA with C26U, A29G", "DNA 1": "CAATCTGAATTCCGGTCTCCC", "DNA 2": "TGGTGGCTACGACGGGATT"}, "B14": {"name": "GUUAAGC (DNA:RNA)", "RNA": "B10 RNA with A25G, C26U, G27U, G28A, A30G", "DNA 1": "CAATCTGAATTCCGGTCTCCC", "DNA 2": "TGGTGGCTACGACGGGATT"}, "B15": {"name": "GUUUUGA (DNA:RNA)", "RNA": "B1 RNA with U25G, A26U, A27U, C28U, C30G, U31A", "DNA 1": "CAATCTGAATTCCGGTCTCCC", "DNA 2": "TGGTGGCTACGACGGGATT"}, "B16": {"name": "UAGCGGC (DNA:RNA)", "RNA": "B1 RNA with A27G, U29G, C30G, U31C", "DNA 1": "CAATCTGAATTCCGGTCTCCC", "DNA 2": "TGGTGGCTACGACGGGATT"}, "B17": {"name": "AGCGACU (DNA:RNA)", "RNA": "B10 RNA with C26G, G27C, A30C, C31U", "DNA 1": "CAATCTGAATTCCGGTCTCCC", "DNA 2": "TGGTGGCTACGACGGGATT"}, "B18": {"name": "AGAGUCC (DNA:RNA)", "RNA": "B10 RNA with C26G, G27A, A29U, A30C", "DNA 1": "CAATCTGAATTCCGGTCTCCC", "DNA 2": "TGGTGGCTACGACGGGATT"}, "B19": {"name": "UUAACUA (DNA:RNA)", "RNA": "B1 RNA with A26U, C28A, U29C, C30U, U31A", "DNA 1": "CAATCTGAATTCCGGTCTCCC", "DNA 2": "TGGTGGCTACGACGGGATT"}, "B20": {"name": "UUUUGCU (DNA:RNA)", "RNA": "B1 RNA with A26U, A27U, C28U, U29G", "DNA 1": "CAATCTGAATTCCGGTCTCCC", "DNA 2": "TGGTGGCTACGACGGGATT"}, "B21": {"name": "GCGACAA (DNA:RNA)", "RNA": "B10 RNA with A25G, G28A, A29C, C31A", "DNA 1": "CAATCTGAATTCCGGTCTCCC", "DNA 2": "TGGTGGCTACGACGGGATT"}, "B22": {"name": "AUCCUAC (DNA:RNA)", "RNA": "B10 RNA with C26U, G27C, G28C, A29U", "DNA 1": "CAATCTGAATTCCGGTCTCCC", "DNA 2": "TGGTGGCTACGACGGGATT"}, "B23": {"name": "UACGAAA (DNA:RNA)", "RNA": "B10 RNA with A25U, C26A, G27C, C31A", "DNA 1": "CAATCTGAATTCCGGTCTCCC", "DNA 2": "TGGTGGCTACGACGGGATT"}, "B24": {"name": "CUAUGGU (DNA:RNA)", "RNA": "B1 RNA with U25C, A26U, C28U, U29G, C30G", "DNA 1": "CAATCTGAATTCCGGTCTCCC", "DNA 2": "TGGTGGCTACGACGGGATT"}, "B25": {"name": "UAGUUGC (DNA:RNA)", "RNA": "B1 RNA with A27G, C28U, C30G, U31C", "DNA 1": "CAATCTGAATTCCGGTCTCCC", "DNA 2": "TGGTGGCTACGACGGGATT"}, "B26": {"name": "ACAGUAG (DNA:RNA)", "RNA": "B10 RNA with G27A, A29U, C31G", "DNA 1": "CAATCTGAATTCCGGTCTCCC", "DNA 2": "TGGTGGCTACGACGGGATT"}, "B27": {"name": "AACCUUU (DNA:RNA)", "RNA": "B1 RNA with U25A, A27C, C30U", "DNA 1": "CAATCTGAATTCCGGTCTCCC", "DNA 2": "TGGTGGCTACGACGGGATT"}, "B28": {"name": "GAACGUG (DNA:RNA)", "RNA": "B1 RNA with U25G, U29G, C30U, U31G", "DNA 1": "CAATCTGAATTCCGGTCTCCC", "DNA 2": "TGGTGGCTACGACGGGATT"}, "B29": {"name": "CGGGCGC (DNA:RNA)", "RNA": "B10 RNA with A25C, C26G, A29C, A30G", "DNA 1": "CAATCTGAATTCCGGTCTCCC", "DNA 2": "TGGTGGCTACGACGGGATT"}, "B30": {"name": "CACUCUG (DNA:RNA)", "RNA": "B1 RNA with U25C, A27C, C28U, U29C, C30U, U31G", "DNA 1": "CAATCTGAATTCCGGTCTCCC", "DNA 2": "TGGTGGCTACGACGGGATT"}, "B31": {"name": "UUCUAAA (DNA:RNA)", "RNA": "B10 RNA with A25U, C26U, G27C, G28U, C31A", "DNA 1": "CAATCTGAATTCCGGTCTCCC", "DNA 2": "TGGTGGCTACGACGGGATT"}}, "note": "Substitutions are numbered along the chain they refer to; changes in the protein carry UniProt numbers. The list shows a part of the results."}
{"biological_target": "T1, RBFOX1 RRM RbFoxmut (Fox-RRM*) (Homo sapiens, UniProt Q9NWB1 109-208, R118D;E147R;N151S;E152T)", "T1 sequence": "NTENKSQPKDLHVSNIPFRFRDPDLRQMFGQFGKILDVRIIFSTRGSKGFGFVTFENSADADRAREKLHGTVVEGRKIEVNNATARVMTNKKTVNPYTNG", "experiment": "EMSA; HiTS-Eq, 1 nM pool, 10 min; buffer printed only for the single-RNA assays: 10 mM Tris pH 7.5, 150 mM NaCl, 3.4 mM EDTA, 0.001% NP-40, 30 C", "details": "tags: His6 N-terminal (pET28a); label: 5' 32P", "summary_of_the_method": "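A pool of RNA with 7 randomized nucleotides, 5′-radiolabelled and with DNA-annealed flanks, was equilibrated at 1 nM for 10 min in 50 µL with purified RbFox RRM, wild type or mutant, across increasing protein concentrations. Free RNA was separated by 8% native PAGE, excised, reverse-transcribed, barcoded by PCR and sequenced. Relative association constants were obtained from read-count changes of each RNA species versus the control reaction and normalised to the cognate motif.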"}
{"binder": "B1", "binding signal": "0.0488 KA relative to UGCAUGU"}
{"binder": "B2", "binding signal": "0.14 KA relative to UGCAUGU"}
{"binder": "B3", "binding signal": "0.103 KA relative to UGCAUGU"}
{"binder": "B4", "binding signal": "0.0765 KA relative to UGCAUGU"}
{"binder": "B5", "binding signal": "0.0727 KA relative to UGCAUGU"}
{"binder": "B6", "binding signal": "0.098 KA relative to UGCAUGU"}
{"binder": "B7", "binding signal": "0.147 KA relative to UGCAUGU"}
{"binder": "B8", "binding signal": "0.331 KA relative to UGCAUGU"}
{"binder": "B9", "binding signal": "0.146 KA relative to UGCAUGU"}
{"binder": "B10", "binding signal": "0.0998 KA relative to UGCAUGU"}
{"binder": "B11", "binding signal": "0.105 KA relative to UGCAUGU"}
{"binder": "B12", "binding signal": "0.11 KA relative to UGCAUGU"}
{"binder": "B13", "binding signal": "0.0791 KA relative to UGCAUGU"}
{"binder": "B14", "binding signal": "0.0938 KA relative to UGCAUGU"}
{"binder": "B15", "binding signal": "0.103 KA relative to UGCAUGU"}
{"binder": "B16", "binding signal": "0.086 KA relative to UGCAUGU"}
{"binder": "B17", "binding signal": "0.0943 KA relative to UGCAUGU"}
{"binder": "B18", "binding signal": "0.0833 KA relative to UGCAUGU"}
{"binder": "B19", "binding signal": "0.0873 KA relative to UGCAUGU"}
{"binder": "B20", "binding signal": "0.111 KA relative to UGCAUGU"}
{"binder": "B21", "binding signal": "0.0662 KA relative to UGCAUGU"}
{"binder": "B22", "binding signal": "0.0748 KA relative to UGCAUGU"}
{"binder": "B23", "binding signal": "0.0838 KA relative to UGCAUGU"}
{"binder": "B24", "binding signal": "0.127 KA relative to UGCAUGU"}
{"binder": "B25", "binding signal": "0.111 KA relative to UGCAUGU"}
{"binder": "B26", "binding signal": "0.119 KA relative to UGCAUGU"}
{"binder": "B27", "binding signal": "0.064 KA relative to UGCAUGU"}
{"binder": "B28", "binding signal": "0.226 KA relative to UGCAUGU"}
{"binder": "B29", "binding signal": "0.102 KA relative to UGCAUGU"}
{"binder": "B30", "binding signal": "0.0573 KA relative to UGCAUGU"}
{"binder": "B31", "binding signal": "0.0971 KA relative to UGCAUGU"}
